The whole screen tested about 110,000 compounds, of which about 230 (0.21%) showed an effect of 50% or more. Some of the results follow.
Biological target: DPAP1 (Plasmodium falciparum, UniProt Q8IIJ9)
Assay: primary screen, percent inhibition; read by cleavage of a fluorogenic dipeptide substrate; higher = more effect of the substance
Design: species or system P. falciparum D10 trophozoite lysates; single well
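Further: 30 min substrate incubation versus DMSO and 10 µM JCP410 controls.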

DPAP1, sequence (Q8IIJ9 whole entry, looked up): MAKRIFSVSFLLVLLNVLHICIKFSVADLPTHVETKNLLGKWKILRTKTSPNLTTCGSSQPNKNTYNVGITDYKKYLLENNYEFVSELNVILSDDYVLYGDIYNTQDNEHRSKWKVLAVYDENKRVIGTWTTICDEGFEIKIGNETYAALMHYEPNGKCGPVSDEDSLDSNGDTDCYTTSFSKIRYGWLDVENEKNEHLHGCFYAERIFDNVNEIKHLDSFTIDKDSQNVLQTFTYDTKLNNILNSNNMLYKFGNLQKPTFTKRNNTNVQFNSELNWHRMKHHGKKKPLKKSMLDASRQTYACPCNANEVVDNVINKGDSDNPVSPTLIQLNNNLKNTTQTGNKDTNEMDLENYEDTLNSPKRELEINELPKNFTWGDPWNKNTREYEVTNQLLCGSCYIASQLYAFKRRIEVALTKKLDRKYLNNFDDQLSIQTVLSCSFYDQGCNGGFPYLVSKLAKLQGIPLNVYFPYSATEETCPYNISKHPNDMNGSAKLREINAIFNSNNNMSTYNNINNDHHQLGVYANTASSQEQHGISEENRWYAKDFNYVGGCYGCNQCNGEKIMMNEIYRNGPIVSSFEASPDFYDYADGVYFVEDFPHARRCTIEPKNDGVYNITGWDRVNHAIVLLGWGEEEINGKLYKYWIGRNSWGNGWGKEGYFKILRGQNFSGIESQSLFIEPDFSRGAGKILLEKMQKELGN

| Compound | % Inhibition @ 10 uM [%] |
| --- | --- |
| Cc1nn(CC(=O)NCCN2CCN(C)CC2)c(=O)c2nn(-c3ccccc3)c(C)c12 | -1.76 |
| CCSC1=C(C#N)C(=O)NC(C)S1 (centres unmarked) | -1.72 |
| COc1nc(-c2ccccc2)cc(-c2ccc(OC)c(OC)c2)n1 | -3.27 |
| COc1cc(C(=O)NCCC(=O)NCc2c(F)cc(F)cc2F)cc(OC)c1OC | -0.519 |
| Cc1cc2nc(Nc3nc(O)c4c(n3)CCC4)nc(C)c2cc1C | 2.69 |
| C(#Cc1ccccc1)CN1CCN(C23CC4CC(CC(C4)C2)C3)CC1 | 6.96 |
| COc1ccccc1CNc1nnc(C)c2nnn(Cc3ccccc3Cl)c12 | 0.00706 |
| O=C(CCCOc1ccc(Cl)cc1Cl)N1CCN(c2ccc([N+](=O)[O-])cc2)CC1 | 0.708 |
| N#Cc1ccc(Oc2ccc(-c3nc4ccccc4c(=O)o3)cc2)cc1C#N | -5.47 |
| CC(C)(C)c1ccc(S(=O)(=O)Nc2ccc(O)cc2)cc1 | -2.86 |
| Cc1ccc(N2CC(=O)NC2=O)cc1 | 5.01 |
| COc1ccc(C(=O)CSC(=O)Nc2ccccc2)cc1 | -2.62 |
| CN1C(=O)/C(=C2\SC(=O)NC2=O)c2ccccc21 | 1.74 |
| COc1cccc(/C(O)=C/c2nc3nonc3nc2O)c1 | -5.29 |
| N#CC1=C(N)Oc2c(ccc3ccccc23)C1c1ccccc1Cl (centres unmarked) | -2.89 |
| N#CC1=C(N)NC(SCc2ccccc2)=C(C#N)C1c1ccccc1Cl (centres unmarked) | 31.7 |
| Cc1ccc(-c2nnc(S)n2/N=C/c2c(C)nn(-c3ccccc3)c2O)cc1 | 4.18 |
| NC(=O)Cn1c2ccccc2c2nc3ccccc3nc21 | 0.812 |
| O=C(O)c1ccc(NCn2nnc3ccccc32)cc1 | 3.82 |
| O=C(Nc1ccc2nc(SCC(=O)N3CCOCC3)sc2c1)c1ccccc1 | -0.413 |
| Cc1ccc(NCc2ccc3c(c2)OCO3)cc1C | -7.17 |
| Cc1nn(CC(=O)NCCCN2CCCC2=O)c(=O)c2cccn12 | -1.65 |
| OC1=C2Sc3ccc(Cl)cc3N=C2CCC1 | 2.51 |
| CC(C)C(=O)Nc1ccc(-c2nc(O)c3ccccc3n2)cc1 | 3.21 |
| COc1cccc(CNCc2c(F)cccc2F)c1OC | -4.7 |
| CCCCNC(=O)CCc1c(C)nc2nc(C)nn2c1C | -6.03 |

| Compound | % Inhibition @ 10 uM [%] |
| --- | --- |
| CCCCCn1c(=O)c(C(=O)Nc2ccccc2Cl)c(O)c2ccccc21 | -2.88 |
| Cc1ccc2oc(=O)c(-c3nc4ccncc4[nH]3)cc2c1 | 0.351 |
| O=C(Nc1cccc(Cl)c1)Nc1cccc2cccnc12 | -3.79 |
| O=C(O)CSc1nnc(-c2ccccc2Cl)n1-c1ccccc1 | -2.39 |
| CC(C)(C)C1CCC(N2CCCC(C(N)=O)C2)CC1 (centres unmarked) | 0.217 |
| COC(=O)c1nc2ccccc2n1Cc1ccc(C)cc1 | 0.0882 |
| COc1ccc(CCNC(=O)CSc2nc3ccccc3nc2N2CCCC2)cc1OC | -3.53 |
| CC(C)=C1C2C=CC1C1C(=O)N(c3ccc(C(=O)O)cc3)C(=O)C21 (centres unmarked) | -7.02 |
| COc1cc2c(cc1OC)C(C(=O)NCCN(C)C)C(c1cccnc1)N(C)C2=O (centres unmarked) | 0.287 |
| CCC1CCCCN1S(=O)(=O)c1cccs1 (centres unmarked) | 5.7 |
| Cc1cccc(CCNC(=O)C2CCC(C/N=c3/c(N4CCCC4)c(O)c3=O)CC2)c1 (centres unmarked) | -4.19 |
| COc1ccc(C(=O)Cn2ccnc2C(=O)NCCc2ccc(Cl)cc2)cc1 | 4.83 |
| CCOC(=O)c1c(NC(=O)c2cc(OC)c(OC)c(OC)c2)sc(-c2ccccc2)c1C | -4.49 |
| Cc1oc(-c2ccc(C(=O)NCCCN3CCOCC3)cc2)nc1CS(=O)(=O)c1ccccc1 | -6.31 |
| CCN(CC)CCn1c(NC(=O)C(F)(F)F)nc2ccccc21 | -2.47 |
| Cc1cc(=O)n2nc(N3CCC(C(=O)NCCc4ccc(Cl)cc4)CC3)sc2n1 | -0.281 |
| COc1cccc(Cn2c(C)c(CNC3CCCCCC3)c(C(=O)O)c2C)c1 | -3.67 |
| Cc1nn(C(C)C(=O)NCCC(C)C)c(=O)c2nn(-c3ccccc3)c(C)c12 (centres unmarked) | -1.76 |
| O=C(O)CNc1ncnc2sc3c(c12)CCCC3 | 2.38 |
| O=C(O)c1cccc(-c2ccc(/C=c3/sc4nc5ccccc5n4c3=O)o2)c1 | -3.21 |
| CCC1CCCCN1S(=O)(=O)c1ccccc1 (centres unmarked) | 0.605 |
| COc1ccc(N(CC(=O)NCc2ccc(Cl)cc2)S(C)(=O)=O)cc1OC | -5.27 |
| C=CCN1C(=O)C2(NC(C)C3C(=O)N(Cc4ccccc4)C(=O)C32)c2ccccc21 (centres unmarked) | -1.38 |
| CCOc1ccc(-c2nc(CS(=O)(=O)CC(=O)NCc3ccccc3Cl)c(C)o2)cc1 | -6.68 |
| Cc1ccc(S(=O)(=O)NC(=O)COc2ccccc2C)cc1 | 2.08 |
| Cn1c(=O)[nH]c(=O)c2c1ncn2CCN(Cc1ccccc1)Cc1ccccc1 | 0.812 |

| Compound | % Inhibition @ 10 uM [%] |
| --- | --- |
| CC(Nc1cnn(C23CC4CC(CC(C(=O)O)(C4)C2)C3)c(=O)c1Cl)c1ccccc1 (centres unmarked) | 7.15 |
| CS(=O)(=O)CC[C@@H](C(=O)NCc1ccco1)N1Cc2ccccc2C1=O | -0.465 |
| O=C(CSc1nc2cc(Cl)ccc2s1)NCC1CCCO1 (centres unmarked) | 2.67 |
| O=C(c1ccc(F)cc1)N1CCN(Cc2cccc(Br)c2)CC1 | -3.76 |
| COc1ccc(Cl)cc1C(=O)Nc1ccc2oc(-c3cccnc3)nc2c1 | 1.72 |
| NC1=NC2(CCCCC2)N(c2cccc(Cl)c2)C(N)=N1 | 0.634 |
| CCOc1ccc(C2CCC(=O)NC2=O)cc1 (centres unmarked) | 1.24 |
| O=C(Cn1nc(-c2ccccc2)ccc1=O)NCCN1CCC(Cc2ccccc2)CC1 | 2.18 |
| CCc1cccc2c(C(=O)C(F)(F)F)cn(CC(=O)NCc3ccco3)c12 | -4.77 |
| COc1ccc(OC)c(NC(=O)c2ccc(Br)cc2)c1 | -1.52 |
| CCO/C(O)=C1\C(C)=Nc2nc(-c3cccs3)nn2C1c1ccc(C#N)cc1 (centres unmarked) | 0.0598 |
| COC(=O)c1sc2cc(F)ccc2c1Cl | -0.294 |
| COCCNS(=O)(=O)c1ccc(OC)c(-c2nnc3c4ccccc4c(C)nn23)c1 | -1.11 |
| COCCNC(=O)Cn1nc(C)n2c(cc3cc(F)ccc32)c1=O | 0.0198 |
| Fc1cccc(Cl)c1CSc1nc2cccnc2[nH]1 | 2.97 |
| CC(C)CCn1c(SCCc2ccccc2)nc2c1c(=O)[nH]c(=O)n2C | -6.36 |
| COCc1[nH]nc2c1C1(CCSC1C)C(C#N)=C(N)O2 (centres unmarked) | -1.06 |
| c1ccc(CCN2CCC(NC3CCN(Cc4ccccc4)CC3)CC2)cc1 | -5.44 |
| Cc1c(C)n(C)c2ccc(C(=O)NCCc3ccccc3Cl)cc12 | 2.77 |
| CCOC(=O)N1CCC(NCCc2ccc(F)cc2)CC1 | -1.5 |
| Cc1ccc(CNC(=O)c2cc3c(=O)n4cccc(C)c4nc3n2C)cc1 | 4.46 |
| Nc1ccc2c(c1)Nc1ccccc1CC2 | 0.937 |
| COc1cccc(C2N3CC4(C)CN2CC(C)(C3)C4=O)c1O (centres unmarked) | 2.1 |
| CCOC(=O)c1c(NC(=O)COc2ccc(Cl)cc2Cl)sc2c1CCC2 | 4.1 |
| Cc1ccnc(NC(=O)NCc2noc3ccccc23)c1 | 2.49 |
| O=C(c1ccccc1)N1CCN(C(=O)C23CC4CC(CC(C4)C2)C3)CC1 | -4.06 |

| Compound | % Inhibition @ 10 uM [%] |
| --- | --- |
| Clc1ccc(N2CCN(CC(c3ccccc3)c3ccccc3)CC2)cc1 | 3.44 |
| O=C(CCc1nc(-c2ccccc2F)no1)Nc1cccnc1 | 5.1 |
| Cc1ccccc1Cn1c(C(=O)O)c(CNCc2ccccc2Cl)c2ccccc21 | 5.62 |
| COc1ccc(NC(=O)C2CC(=O)N=C(Nc3ccc(C)c(C)c3)S2)cc1 (centres unmarked) | -4.01 |
| CCO/C(O)=C1\C(C)=NC(=S)NC1c1cc(Br)c(O)c(OCC)c1 (centres unmarked) | -0.85 |
| COc1cc(C2CC(=O)NC(SCC(=O)Nc3nccs3)=C2C#N)cc(OC)c1OC (centres unmarked) | -3.21 |
| CCCN1CCC(NCCC(c2ccccc2)c2ccccc2)CC1 | 1.08 |
| O=C(O)/C=C(/c1ccccc1)C(F)(F)F | 3.48 |
| CSc1cc(S(=O)(=O)C(C)(C)C)sc1S(=O)(=O)C(C)(C)C | 2.62 |
| N#Cc1c(N)nc2c(c1-c1cccs1)CCCCC2 | 0.605 |
| CCC(C)NC(=O)C1CCN(c2nnc(C)c3c(C)n(-c4ccc(C)cc4)nc23)CC1 (centres unmarked) | 9.79 |
| CC1CCCCN1C(=O)Cn1ncc2c3ccccc3n(Cc3ccccc3)c2c1=O (centres unmarked) | 3.4 |
| COc1ccc(-c2cc(-c3ccc(OC)cc3)c(C#N)c(SCC(=O)c3ccccc3)n2)cc1 | -2.47 |
| CC1=C(C(=O)Nc2cc(C)ccn2)C(c2cccc(Cl)c2)C2=C(O)CC(C)(C)CC2=N1 (centres unmarked) | 2.76 |
| O=S(=O)(Nc1cc(C(F)(F)F)ccc1Cl)c1ccc(F)cc1 | -7 |
| CCCSC1=C(C#N)C(c2ccccc2OC)CC(=O)N1 (centres unmarked) | -0.736 |
| CN(C)C(CNC(=S)NCc1ccccc1)c1cccnc1 (centres unmarked) | -2.29 |
| COc1ccc(C(=O)Nc2ccc(Cl)cc2C(=O)NCCN2CCOCC2)cc1 | -12.7 |
| COCc1nc(-c2ccc(-c3ccc(Cl)cc3)nc2OC)no1 | -1.33 |
| O=C(Nc1cccc(C(=O)Nc2ccccc2C(=O)O)c1)c1cccc(Cl)c1 | -1.51 |
| Cc1ccc2c(C(=O)CSc3ccccc3)c(C)[nH]c2c1 | -3.41 |
| O=C(c1ccc(CS(=O)(=O)Cc2ccc(Cl)cc2)o1)N1CCCCCC1 | -3.12 |
| CCOC(=O)N1CCN(C(=O)c2cc3c(=O)oc4ccc(C)cc4c3s2)CC1 | -1.54 |

— article PMC6919601, “Identification of Plasmodium dipeptidyl aminopeptidase allosteric inhibitors by high throughput screening” (PLoS ONE, 2019)
